Experimental data reported in PubChem BioAssay AID1240 (Sanford-Burnham Center for Chemical Genomics, 2008).
Among all 50,000 compounds or so, about 800 (1.6%) showed an effect of 50% or more. The list shows a part of the results.

Target: Bcl-2-like protein 10 (Homo sapiens) (UniProt Q9HD36)
Assay: Phenotype converters, Bcl-B/TR3 peptide binding displacement, primary biochemical FP (AID 1240);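 also: 0% = Bcl-B with tracer peptide and DMSO and 100% = tracer peptide lacking Bcl-B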
Settings: GST-Bcl-B / FITC-TR3 peptide fluorescence polarization; stronger effect = higher value; compound at 3.75 mg/L

Sequence of UniProt Q9HD36 (Q9HD36 whole entry, looked up): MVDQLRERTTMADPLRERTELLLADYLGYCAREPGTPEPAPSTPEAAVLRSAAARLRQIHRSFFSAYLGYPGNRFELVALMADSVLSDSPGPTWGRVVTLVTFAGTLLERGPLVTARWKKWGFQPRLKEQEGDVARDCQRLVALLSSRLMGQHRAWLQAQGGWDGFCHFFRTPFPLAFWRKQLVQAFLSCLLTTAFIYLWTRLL

Compound	displacement [%]
O=C(NCCN1CCN(C(=O)c2ccccc2Cl)CC1)C(=O)Nc1ccccc1	9
Cc1cccc2c1N(C(=O)Cc1ccccc1)C(C)(C)c1ssc(=S)c1-2	-1.6
CCOC(=O)c1ccc(N2NC(=O)/C(=C/c3ccccc3)C2=O)cc1	-7.6
CCOC(=O)c1sc(NC(=O)CCCOc2ccc(Cl)cc2C)c(C(N)=O)c1C	48
CCCCOC(=O)c1ccc(NC(=O)C2CC(C)=C(C)CC2C(=O)O)cc1 (centres undefined)	10
COc1ccc(Br)cc1C1CC(=O)Nc2c1ccc1ccccc21 (centres undefined)	-14
O=C(CSc1nc2ccccc2o1)Nc1ccccc1Oc1ccccc1	-20.1
COc1ccc(NC(=O)Cc2ccc(Br)cc2)c(OC)c1	0.6
COc1ccc(OCCSc2nc3ccccc3c(=O)[nH]2)cc1	13.2
Cc1ccc(N2NC(=O)/C(=C/c3ccc(-c4ccc(S(N)(=O)=O)cc4)o3)C2=O)cc1	5.6
Cc1cc(C)nc(/N=C(/N)N2CCCc3ccccc32)n1	3.7
Cc1ccc(C(=O)Nc2ccccc2C(=O)O)cc1N	2.7
CN1C(=O)NC(=O)/C(=C/c2ccc(O)c(Br)c2)C1=O	-5.5
O=C1/C(=C\c2ccc(O)cc2O)SC(=S)N1c1ccccc1	12.1
O=C(NC(=S)Nc1ccccc1O)c1ccccc1	7.7
O=C(/C=C/c1cccs1)NCc1ccc2c(c1)OCO2	-15.8
O=[N+]([O-])c1ccc(-c2ccc(/C=C/c3ccc4ccccc4n3)o2)cc1	14.8
O=C(N/N=C/c1c(Br)cc(Br)c(O)c1Br)c1ccccc1[N+](=O)[O-]	-2.6
COCCN1C(=O)C(=O)/C(=C(/O)c2ccccc2)C1c1ccc(OC)c(OC)c1 (centres undefined)	2.3
Cc1ccc(N2C(=O)NC(=O)/C(=C\c3ccc(-c4ccc(C)c([N+](=O)[O-])c4)o3)C2=O)cc1	151
COc1ccc(N(CC(=O)N/N=C/c2cc(Br)c(C)o2)S(=O)(=O)c2ccc(NC(C)=O)cc2)cc1	-40.2
O=C(N/N=C/c1cc2c(cc1Cl)OCO2)/C(=C\c1ccc2c(c1)OCO2)NC(=O)c1ccccc1	2.1

Compound	displacement [%]
O=C(NCC1CCCO1)c1ccc(F)c2ccccc12 (centres undefined)	-13.5
COc1ccc(-c2noc(COc3ccccc3)n2)cc1	0
C/C(=N\OCC(=O)N=Nc1c(O)n(CN2CCCC2)c2ccccc12)c1ccc(C)cc1	0.8
COC(=O)C1=C(C)N(Cc2cccnc2)C(=O)/C1=C\c1cccc(OC)c1O	-2
O=C(NCCNc1ccc(Cl)cc1[N+](=O)[O-])c1cccnc1	-3.2
COc1cc(/C=C2\C(=O)NN(c3ccccc3)C2=O)ccc1OCCOc1ccc(C)cc1	9
COc1ccc(C(=O)n2c(C)nc3ccccc32)cc1[N+](=O)[O-]	15
CCOc1ccc(NC(=S)NC(=O)c2ccc(Br)cc2)c([N+](=O)[O-])c1	4.5
CCCn1c2ccccc2c2cc(C(C)=O)ccc21	-2.2
CC(C)(C)c1nnc(NC(=O)CSc2ncn[nH]2)s1	-1
COc1ccc(C2=Cc3cc(OC)c(OC)cc3S(=O)(=O)O2)cc1OC	4.1
COc1ccccc1NC(=O)C(=O)NNC(=O)c1cccs1	-9.5
CCN(CC)S(=O)(=O)c1ccc(NC(=O)c2cccs2)cc1	-6.9
COc1ccc2c(c1OC)C(=O)N(c1nc(-c3ccccc3)c(C(=O)c3ccccc3)s1)C2=O	7.5
CC1SC(c2ccccc2)N(CCc2ccccc2)C1=O (centres undefined)	-14.2
CCCCCCCNC1CC(=O)N(c2cccc(Cl)c2)C1=O (centres undefined)	-25.2
Cc1cc(C)c(C)c(OCCCCN2CCC(C)CC2)c1	-11
O=C(c1cccc([N+](=O)[O-])c1)c1ccc2c(c1)C(=O)N(c1cccc(-c3nc4ccccc4o3)c1)C2=O	10.2
COc1cc([N+](=O)[O-])ccc1N/C(N)=N\c1nc(C)cc(C)n1	-7.4
CCOC(=O)c1c(NC(=O)c2ccccc2OC)sc2c1CCCCC2	3.8
Cc1cc(C)c(C(=O)/C=C/c2ccncc2)c(=O)[nH]1	-3.1
C/C(=N\NC(=O)c1cc(C)[nH]n1)c1ccc(Cl)cc1	-3.3

Compound	displacement [%]
CC1(C)CC(=O)C=C(Nc2ccc(F)cc2F)C1	-11.1
NNc1nc(N2CCCCC2)nc(N2CCCCC2)n1	8.4
Fc1ccc(C2=NN(c3ccccc3)C(c3ccco3)C2)cc1 (centres undefined)	3.2
CCCN1C(=O)c2ccccc2NC1c1ccc(OC)c(COc2ccc([N+](=O)[O-])c(C)c2)c1 (centres undefined)	2.1
Cc1sc(NC(=O)c2ccc(Cl)cc2Cl)nc1C12CC3CC(CC(C3)C1)C2	-6.7
COc1ccc(OC)c(S(=O)(=O)N2CCCCC2)c1	-0.9
CCc1ccc(NC(=O)COc2ccc(C)cc2C)cc1	-4
Cc1ccccc1C(=O)Nc1sc2c(c1C(=O)NCc1ccco1)CCC2	-11.7
Cc1ccc(CC2CC(=O)N(c3cccc(C(F)(F)F)c3)C2=O)cc1 (centres undefined)	8.3
Cc1cc(NC(=O)c2ccc(-c3ccccc3)cc2)ccc1NC(=O)c1ccco1	-8.5
O=C(NC(Nc1ccccn1)C(Cl)(Cl)Cl)c1ccccc1 (centres undefined)	-2.7
Cc1ccc2c(Cl)c(C(=O)Nc3cc(Cl)ccc3C)sc2c1	-6.7
CC(C)(C)c1ccc(O)c(N=Cc2c(O)ccc3cc([N+](=O)[O-])ccc23)c1	-3.5
CCOC(=O)CCc1c(C)nc2c(C)c(-c3ccc(C)cc3)[nH]n2c1=O	9.9
Cc1ccc(C23CC4CC(CC(C(=O)NC5CCCCC5)(C4)C2)C3)cc1	1.4
O=C(Nc1ccc(F)c([N+](=O)[O-])c1)c1cccc(Cl)c1Cl	13.4
CCc1cccc(C)c1NC(=O)c1c(Cl)ccc(Cl)c1OC	-10.9
O=C(Cn1cnc([N+](=O)[O-])n1)N1CCN(Cc2ccccc2)CC1	-7.5
O=C1NCCCc2nc(Nc3ccccc3)sc21	1
COc1ccccc1-c1nc2ccccc2nc1-c1ccccc1OC	-5.7
CCCOc1ccc(N2C(=O)CC(N3CCN(C)CC3)C2=O)cc1 (centres undefined)	27.2
CCOC(=O)C1=C(C)N=c2s/c(=C\c3cc(OC)c(O)c(OC)c3)c(=O)n2C1c1ccccc1 (centres undefined)	-29.2

Compound	displacement [%]
CCOc1cccc(C=NN2CCN(Cc3ccc(C)cc3C)CC2)c1O	7.9
O=C(Nc1ccc([N+](=O)[O-])cc1Cl)c1cc2ccccc2o1	8.5
COc1ccccc1NC(=O)/C=C/c1ccc(C)o1	17.4
O=C(Nc1ccccc1C(F)(F)F)c1cccc(OCc2ccccc2)c1	-1.9
O=C(c1cccc(F)c1)N1CCN(c2ccc(Cl)cc2)CC1	0.6
Cc1ccc(-c2csc(NC(=O)C3C4CCC(C4)C3C(=O)O)n2)cc1C (centres undefined)	-9.6
CCOc1cc(OCC)cc(C(=O)Nc2ccc(F)cc2)c1	13.3
O=C(NC(=S)Nc1ccccc1O)c1ccc(Br)cc1	10
CC(=O)C1=C(O)C(=O)N(CC2CCCO2)C1c1ccc([N+](=O)[O-])cc1 (centres undefined)	8.7
Cc1cccc(N(CC(O)CN2C(=O)NC(C)(C)C2=O)S(=O)(=O)c2ccccc2)c1 (centres undefined)	-3.5
COC(=O)c1cc(Br)cc(NC(C)=O)c1	7.8
O=C(NC(Nc1ccccc1Cl)C(=O)c1ccccc1)c1ccco1 (centres undefined)	-8.7
Cc1ccc(Nc2nc(-c3ccccc3)cs2)cc1	5.8
COc1cc(C(=O)N/C(N)=N/c2nc3ccccc3o2)cc(OC)c1OC	22.1
Cc1cccc(C)c1OCC(=O)N/N=C/c1ccccc1[N+](=O)[O-]	-0.9
O=C(NCCN1CCCCC1)c1ccc(/C=N/O)nc1	-2.3
Cc1ccccc1C(=O)NN1C(=O)CSC1=S	9.8
CSc1ccc(/C=N/NC(=O)c2cc(C)[nH]n2)cc1	3.8
O=S(=O)(Nc1ccc2oc3c(c2c1)CCCC3)c1ccccc1	-5.5
COc1cccc(C(=O)Nc2cc3nn(-c4ccc(C)cc4)nc3cc2C)c1	-13.3
COc1ccc(C2NCCc3c2[nH]c2ccccc32)cc1OC (centres undefined)	8.4
O=C(Nc1cccc(I)c1)C(c1ccccc1)c1ccccc1	7.4

Compound	displacement [%]
CC(C)(C)c1ccc(C(=O)Nc2ccc(NC(=O)COc3ccccc3[N+](=O)[O-])cc2)cc1	0
O=C(NCc1ccncc1)c1ccc([N+](=O)[O-])cc1	4.3
CC(C)CCNC(=O)/C=C/c1ccc([N+](=O)[O-])cc1	-3.7
CC1CN(c2ccc([N+](=O)[O-])cc2)CCN1S(C)(=O)=O (centres undefined)	-6
CCCOc1ccc(C(=O)c2ccc(F)cc2)cc1OCCC	7.8
Cc1ccc(-c2cc(C(=O)Nc3ccccc3)c3ccccc3n2)cc1	-14.7
CCOc1ccc(/C=C2\C(=O)NC(=O)N(c3ccc(CC)cc3)C2=O)cc1OC	-10.4
Cc1ccccc1-c1nc2ccccc2o1	11.7
Cc1ccc(-c2ccc(OCC(=O)Nc3ccccc3C(N)=O)cc2)cc1	4.4
O=C(Oc1ccccc1/C=N/n1cnnc1)c1ccccc1Br	-8.5
COc1ccc(-c2ccc(/C=C3/C(=O)NC(=O)N(c4ccc(C)cc4)C3=O)o2)c([N+](=O)[O-])c1	83.5
CCOC(=O)c1c(-c2ccccc2)oc2ccc(OCC(=O)O)cc12	9.4
CCCN1C(=O)C(O)(C2COC(C)(C)CC2=O)c2ccccc21 (centres undefined)	4.2
CCOC(=O)c1c(NC(=O)c2ccc(OCC(C)C)cc2)sc(C)c1C	-2
O=S(=O)(c1ccc(Cl)cc1)N1CCN(Cc2cccnc2)CC1	-12.3
O=C(Nc1ccc(-c2nc3ccccc3s2)c(O)c1)c1ccc2c(c1)OCCO2	-3.8
COC(=O)c1ccc(OCC(O)CN2C(=O)c3ccccc3C2=O)cc1 (centres undefined)	-1.1
O=C(NC(=S)Nc1ccc2oc(-c3ccc(I)cc3)nc2c1)c1ccco1	28.7
COc1cccc(N(CC(=O)Nc2ccccc2)S(=O)(=O)c2ccccc2)c1	24.6
Cc1ccc(OCC(=O)Nc2cccc3c2CCCC3)c(Br)c1	-6.7
COc1ccc(C(=O)Nc2ccc(N(C)C)cc2)cc1	6
